Source: PubChem BioAssay AID1460 (National Center for Advancing Translational Sciences (NCATS), 2008)
About 5,800 (2.1%) of roughly 270,000 compounds were called active. The shares of active, inactive and inconclusive entries below differ from those in the screen. The call rests on the fitted dose curve; in most records, active means well fitted inhibition curve with a large enough effect; inconclusive means small, poorly fitted or top-dose-only effect; inactive means flat fitted curve, though single readings scatter. Potencies of inconclusive entries are doubtful fits and often do not repeat.

Biological target: Microtubule-associated protein tau (Homo sapiens) (UniProt P10636)
Sequence of UniProt P10636 (P10636 whole entry, looked up): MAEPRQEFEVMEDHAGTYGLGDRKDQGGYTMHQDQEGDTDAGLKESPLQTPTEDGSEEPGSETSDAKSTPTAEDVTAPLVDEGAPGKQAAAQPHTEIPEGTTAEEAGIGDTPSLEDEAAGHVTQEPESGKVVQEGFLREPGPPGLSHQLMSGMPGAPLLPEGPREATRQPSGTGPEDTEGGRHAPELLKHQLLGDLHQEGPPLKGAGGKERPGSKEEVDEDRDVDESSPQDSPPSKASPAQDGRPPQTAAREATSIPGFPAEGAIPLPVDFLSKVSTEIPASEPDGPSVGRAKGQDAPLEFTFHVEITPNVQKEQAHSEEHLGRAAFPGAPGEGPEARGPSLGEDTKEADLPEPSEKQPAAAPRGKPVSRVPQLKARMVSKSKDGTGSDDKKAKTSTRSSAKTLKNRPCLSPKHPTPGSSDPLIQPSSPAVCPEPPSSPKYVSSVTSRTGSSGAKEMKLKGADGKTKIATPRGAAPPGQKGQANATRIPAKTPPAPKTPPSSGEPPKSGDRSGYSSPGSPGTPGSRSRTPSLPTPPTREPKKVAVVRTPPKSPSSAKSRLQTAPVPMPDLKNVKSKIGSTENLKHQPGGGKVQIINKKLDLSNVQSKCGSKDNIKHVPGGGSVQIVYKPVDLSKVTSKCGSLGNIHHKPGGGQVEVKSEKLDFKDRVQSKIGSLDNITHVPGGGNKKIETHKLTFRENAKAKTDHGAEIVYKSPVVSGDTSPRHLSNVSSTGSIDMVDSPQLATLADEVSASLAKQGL
Assay: qHTS for Inhibitors of Tau Fibril Formation, Thioflavin T Binding; further: nearly all actives have a fitted effect of over 55% in size
Conditions: recombinant tau K18 P301L (four-repeat tau fragment), heparin-induced fibrillization, ThT fluorescence; series mostly up to 57.4 µM
In short: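 In this qHTS, human K18 P301L tau is incubated with compound and heparin for 6 hr at 37 C, and Thioflavin T fluorescence then reports fibril load.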
Potency means the concentration at half of the fitted maximal effect; tags describe the fitted curve by direction and shape.

Row | Compound | Potency
1 | COc1c2c(cc3c1C(CC(=O)c1c(O)c(OC)c4occc4c1OC)[N+](C)(C)CC3)OCO2 (centres undefined) | inconclusive: 17.8 µM [inhibitor, partial curve, poor fit]
2 | CCn1c(SCC(=O)c2c[nH]c3ccccc23)nc2cc(S(=O)(=O)N3CCOCC3)ccc21 | inconclusive: 17.8 µM [inhibitor, partial curve]
3 | O=C(Oc1c(CN2CCOCC2)cc(Cl)c2cccnc12)c1ccccc1Br | inconclusive: 20 µM [inhibitor, partial curve]
4 | Cc1c(/C=N/Nc2ccc([N+](=O)[O-])cn2)c2ccccc2n1Cc1ccccc1 | inconclusive: 25.1 µM [inhibitor, partial curve]
5 | N#C/C(=C\c1ccccc1O)C(=O)Nc1cccnc1 | inconclusive: 2.51 µM [inhibitor, full curve]
6 | O=C1OCc2cccc([N+](=O)[O-])c21 | inactive
7 | Cc1ccc(NC(=O)CN2C(=O)S/C(=C\c3cccn3-c3cccc(C(=O)O)c3)C2=O)cc1C | inconclusive: 28.2 µM [inhibitor, single point]
8 | COCCCn1[nH]c2c3c(ccc2c1=O)C(=O)c1ccccc1C3=O | inconclusive: 15.8 µM [inhibitor, partial curve]
9 | CCOc1ccccc1N(C)C(=O)c1cc2c(s1)-c1ccccc1OC2 | inconclusive: 44.7 µM [inhibitor, single point]
10 | CNC(=S)Nc1ccc(C)c(NC(=S)NC)c1 | inconclusive: 17.8 µM [inhibitor, single point]
11 | COc1cnc(-c2ccccn2)nc1Sc1ccccc1Cl | inconclusive: 28.2 µM [inhibitor, single point]
12 | Cc1nnc(NC(=O)CC(NC(=O)C(F)(F)F)c2ccccc2)s1 (centres undefined) | inactive
13 | O=C(Cc1cnn(-c2ccccc2)c1)c1ccc(O)c(O)c1O | active: 14.1 µM
14 | Cc1ccc(NC(=O)c2sc(-n3nc(C)c(Cc4ccc5c(c4)OCO5)c3C)nc2C)cc1Cl | inactive
15 | CCN(CC)S(=O)(=O)c1ccc2c(c1)N(CC(=O)NCCCN1CCN(c3cc(Cl)ccc3C)CC1)C(=O)CO2 | inactive
16 | CCOc1ccccc1C1N=C(c2ccc(OC)cc2)CC(c2ccccc2O)N1 (centres undefined) | inconclusive: 11.2 µM [inhibitor, partial curve]
17 | Cc1ccc(SCc2[nH]nc3c2C(c2cccnc2)C(C#N)=C(N)O3)cc1 (centres undefined) | inconclusive: 25.1 µM [inhibitor, single point]
18 | COc1ccc(CNC(=O)Cc2c(C)c3c(cc(C)c4c(C)c(C)oc43)oc2=O)cc1OC | inactive
19 | O=c1c(N=Nc2ccc(O)cc2)c(-c2ccccc2)[nH]n1-c1ccc([N+](=O)[O-])cc1 | inconclusive: 5.62 µM [inhibitor, single point]
20 | CCCCCn1c(=O)[nH]c2cc(C(=O)NCc3ccccc3)ccc2c1=O | inconclusive: 22.4 µM [inhibitor, partial curve]
21 | Cc1cc(F)ccc1NCC(=O)Nc1ccccc1Br | inactive
22 | Cc1c(C2CC(=O)N(c3ccccc3)C2=O)[nH]n(-c2ccccc2)c1=O (centres undefined) | inconclusive: 20 µM [inhibitor, single point]

Row | Compound | Potency
23 | CCOc1ccc(NC(=O)CCc2c(C)nc3cc(-c4ccc(Cl)cc4)nn3c2C)cc1 | inconclusive: 4.47 µM [inhibitor, partial curve]
24 | Oc1ccc(NCc2ccc(OCc3ccccc3)cc2)cc1 | inconclusive: 5.62 µM [inhibitor, partial curve]
25 | Cc1cc(=O)oc2cc(OCC(=O)Nc3ccc(O)c(C(=O)O)c3)ccc12 | inconclusive: 1.58 µM [inhibitor, full curve]
26 | C=CCSc1nc2[nH]ncc2c(=O)[nH]1 | inactive
27 | CCCn1cnc2cc(NCc3ccc(OC)cc3OC)ccc21 | inconclusive: 11.2 µM [inhibitor, partial curve]
28 | COc1ccc(N2CCN(C(=O)c3cc4c(-c5cccc(OC)c5)nn(C)c4s3)CC2)cc1 | inconclusive: 12.6 µM [inhibitor, partial curve, poor fit]
29 | O=C(CSc1nnc(-c2cccnc2)n1-c1ccccc1)Nc1ccccc1 | inactive
30 | CCOCCCNC(=O)c1ccc(-n2c(-c3ccccc3)cc3c2CCCCC3)cc1 | inactive
31 | COc1ccc2o/c(=N\O)c(C(=O)Nc3ccccc3OC)cc2c1 | inconclusive: 0.224 µM [inhibitor, full curve, poor fit]
32 | COc1ccc(CNCc2c(C(=O)O)n(Cc3ccc(F)cc3)c3cc(C)ccc23)cc1OC | inactive
33 | COCCOC(=O)c1c(C)oc2ccc(NS(=O)(=O)c3ccccc3)cc12 | inactive
34 | CSc1ccccc1NC(=O)CN(C)CC(=O)Nc1ccccc1C(F)(F)F | inactive
35 | COc1ccc(C(=O)/C=C/c2cn(CC(O)CN3CCOCC3)c3ccccc23)cc1 (centres undefined) | active: 10 µM
36 | CN(C)CCCNc1cc(C(C)(C)C)nc2c(-c3ccccc3)cnn12 | inconclusive: 39.8 µM [inhibitor, single point]
37 | CCOC(=O)N1CCN(c2ccc(C(=O)CC)cc2F)CC1 | inconclusive: 3.16 µM [inhibitor, partial curve]
38 | Cc1ccc(/C=N/NC(=O)c2cc(C)oc2C)cc1 | inconclusive: 31.6 µM [inhibitor, partial curve]
39 | N#C/C(=C1/CCCCCN1)c1nnc2n1CCCCC2 | inactive
40 | COc1ccc(CC(=O)Nc2ccc3nc(N4CCCCC4)cc(C)c3c2)cc1 | inconclusive: 15.8 µM [inhibitor, partial curve]
41 | CC(C)CC1C(C#N)=C(N)Oc2n[nH]c(-c3cccs3)c21 (centres undefined) | inconclusive: 44.7 µM [inhibitor, single point]
42 | CCOC(=O)c1ccc(NC(=O)Cn2ncc(Cl)c(Cl)c2=O)cc1 | inconclusive: 8.91 µM [inhibitor, partial curve]
43 | O=C(O)CC1S/C(=N/N=C/c2ccc(-c3ccc(Cl)cc3[N+](=O)[O-])o2)NC1=O (centres undefined) | active: 1 µM
44 | CCOC(=O)C(=CNc1ccc(OC)cc1[N+](=O)[O-])C(=O)OCC | inconclusive: 25.1 µM [inhibitor, partial curve, poor fit]
